About 1,100 (0.39%) of roughly 280,000 compounds were called active. This list was built around the results that the source calls inconclusive (neither active nor inactive); the mix of calls is not that of the screen. The call rests on the fitted dose curve; in most records, active means well fitted inhibition curve with a large enough effect; inconclusive means small, poorly fitted or top-dose-only effect, or effect the other way; inactive means flat fitted curve, though single readings scatter. No potency is given beside an inconclusive call; the fits are too rough.
These molecules were tested against Microtubule-associated protein tau (Homo sapiens) (UniProt P10636) (assay: qHTS for Inhibitors of Tau Fibril Formation, Fluorescence Polarization). Conditions: K18 P301L tau heparin fibrillization, Alexa594 FP, 6 h; series mostly up to 57.7 µM; activity, negative = inhibition: at the top concentration.
Sequence of UniProt P10636 (P10636 whole entry, looked up, the tested form may be a part): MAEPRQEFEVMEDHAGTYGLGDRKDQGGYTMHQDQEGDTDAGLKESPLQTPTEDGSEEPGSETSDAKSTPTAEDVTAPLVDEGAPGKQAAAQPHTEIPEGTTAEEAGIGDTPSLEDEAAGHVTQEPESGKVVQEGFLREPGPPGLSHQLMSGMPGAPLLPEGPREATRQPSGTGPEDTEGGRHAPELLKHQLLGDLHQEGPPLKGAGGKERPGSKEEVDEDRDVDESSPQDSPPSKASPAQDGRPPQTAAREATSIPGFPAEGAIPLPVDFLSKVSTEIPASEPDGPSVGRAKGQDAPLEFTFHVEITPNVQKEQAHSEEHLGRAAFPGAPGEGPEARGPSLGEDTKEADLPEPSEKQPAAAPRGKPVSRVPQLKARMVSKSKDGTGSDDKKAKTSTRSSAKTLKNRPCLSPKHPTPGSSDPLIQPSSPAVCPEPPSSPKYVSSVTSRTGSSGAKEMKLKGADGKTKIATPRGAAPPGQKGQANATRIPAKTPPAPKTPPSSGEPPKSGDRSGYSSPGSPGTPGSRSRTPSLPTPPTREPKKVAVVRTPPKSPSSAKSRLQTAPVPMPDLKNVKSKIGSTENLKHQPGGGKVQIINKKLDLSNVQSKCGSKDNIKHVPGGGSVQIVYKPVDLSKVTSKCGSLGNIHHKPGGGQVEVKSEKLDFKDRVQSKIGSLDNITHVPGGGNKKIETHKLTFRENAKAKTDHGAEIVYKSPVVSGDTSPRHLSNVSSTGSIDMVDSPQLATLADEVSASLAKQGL
Method in brief: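 Human tau K18 […] P301L fragment, 15 uM unlabeled plus 0.24 uM Alexa 594-labeled tau (final), with compound and 20 uM heparin in 100 mM sodium acetate pH 7; 6 hr at 37 C, then Alexa 594 FP read.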
Further: nearly all actives have a fitted effect of over 55% in size.
On the % scale 0 is the no-effect control and ±100 the full control effect; potency means the concentration at half of the fitted maximal effect; tags describe the fitted curve by direction and shape.

Structure (SMILES) | Potency | activity, negative = inhibition
CCOc1sc2nc(C)n(CC(=O)Nc3cccc(C)c3)c(=O)c2c1C | inconclusive [inhibitor, single point] | 
COc1ccc(OCc2nc3ccccc3n2Cc2ccccc2Cl)cc1 |  | inactive: -3.03%
COC(=O)c1ccc(NC(=O)CSc2nc(=O)[nH]c3c2CCCC3)cc1 | inconclusive [inhibitor, single point] | 
CCCC1OC23CCCCC2C(C#N)(C#N)C1(C#N)C(=N)O3 (stereo not given) | inconclusive [inhibitor, single point] | 
O=C(/C=C/c1ccccc1)N1CCN(CCN2C(=O)c3cccc4cccc(c34)C2=O)CC1 | inconclusive [activator, partial curve, poor fit] | 
COc1ccccc1CNc1nc(-c2ccco2)nn1S(=O)(=O)c1ccc2ccccc2c1 | inconclusive [inhibitor, partial curve] | 
CCOC(=O)C1CCN(S(=O)(=O)c2cc(Br)cc3c2N(C(=O)CC)CC3)CC1 |  | inactive: 1.33%
Cc1cc(Nc2ccccc2)nc(NCc2ccccc2)n1 | inconclusive [inhibitor, partial curve] | 
COc1ccc(S(=O)(=O)N(CC(=O)Nc2ccccc2Br)Cc2ccccc2)cc1 |  | inactive: -9.67%
Cn1c(=NC(=O)c2ccc(S(=O)(=O)N3CCCc4ccccc43)cc2)sc2cc(F)ccc21 | inconclusive [inhibitor, partial curve, poor fit] | 
Oc1ccc(-c2onc3ccc(Cl)cc23)cc1 | inconclusive [inhibitor, partial curve, poor fit] | 
Cc1cccc(N2CCN(Cc3ccoc3)CC2)c1C |  | inactive: 5.95%
CC(C)CC(C(=O)OCC(=O)c1c(N)n(C)c(=O)n(C)c1=O)N1C(=O)c2ccccc2C1=O (stereo not given) | inconclusive [inhibitor, partial curve] | 
C=Cc1ccc(Cn2ccn(-c3ccc(F)c(F)c3)c(=O)c2=O)cc1 | inconclusive [inhibitor, partial curve] | 
CN(Cc1cccnc1)C(=O)CC1C(=O)NCCN1Cc1ccc(-c2ccccc2)cc1 (stereo not given) |  | inactive: 0.363%
Fc1ccc2c(c1)-c1c(cnc3cc(-c4ccc(Cl)cc4)nn13)CO2 | inconclusive [inhibitor, partial curve] | 
CC(=O)N1CCc2cc(CNC(=O)Nc3ccc(Br)c(C)c3)ccc21 | inconclusive [inhibitor, single point] | 
CC(C)c1nc(SCC(=O)c2ccc(F)cc2)c2ccccc2n1 | inconclusive [inhibitor, partial curve] | 
COc1ccc(-c2nc(CSc3nnc(C)n4c3cc3oc(C)cc34)c(C)o2)cc1OC | inconclusive [activator, partial curve, poor fit] | 
COc1ccc(/C=N/NC(=O)CCn2c3ccccc3c3ccccc32)cc1O |  | inactive: -9.51%
O=C(c1cccs1)N(Cc1cccnc1)c1nc2c(F)cc(F)cc2s1 | inconclusive [inhibitor, single point] | 
CCN(CCCNC(=O)c1ccc(Sc2ccc(Cl)cc2)c(NC(C)=O)c1)c1ccccc1 | inconclusive [activator, single point] | 

Structure (SMILES) | Potency | activity, negative = inhibition
Clc1ccc(/C=N/c2c(-c3ccco3)nc3ccccn23)cc1 | inconclusive [inhibitor, single point] | 
Cc1ccc(C)c(S(=O)(=O)Nc2cc(SCC(=O)O)c(O)c3ccccc23)c1 | active: 7.94 µM | 
Cc1cc(NC(=O)Cn2c(=O)oc3cc(S(=O)(=O)N4CCCC4)ccc32)ccc1Br | inconclusive [inhibitor, partial curve] | 
CSc1nsc(/C=C/Nc2cccc(Cl)c2)c1C#N |  | inactive: -3.51%
Cn1c(=O)c2c(nc(N/N=C/c3cccs3)n2Cc2ccc(Br)cc2)n(C)c1=O | inconclusive [activator, full curve] | 
S=C1NC(c2ccccc2)N2C(=S)NC(c3ccccc3)N12 (stereo not given) |  | inactive: -3.48%
COc1ccc(-n2nc3c(N4CCC(C(=O)NCCc5ccccc5)CC4)nnc(C)c3c2C)cc1 | inconclusive [inhibitor, single point] | 
O=C(c1cccc(S(=O)(=O)N2CCc3ccccc3C2)c1)N1CCN(c2ccccc2)CC1 | inconclusive [activator, single point] | 
CCOc1ccc(C2=NNC(c3cccs3)=Nc3ccc(OC)cc32)cc1OCC | inconclusive [activator, single point] | 
CC(C)(C)c1ccc(-c2noc(-c3ccc4c(c3)CCO4)n2)cc1 | inconclusive [inhibitor, single point] | 
CCNC(=S)NS(=O)(=O)c1ccccc1 |  | inactive: -1.86%
COc1ccccc1N1CCN(S(=O)(=O)c2cccc3nsnc23)CC1 | inconclusive [inhibitor, single point] | 
O=C(Nc1cccc(C(F)(F)F)c1)c1cccc(C(=O)Nc2cccc(C(F)(F)F)c2)c1 | inconclusive [inhibitor, full curve] | 
O=C1CCCN1CCC1CCN(C2CC(=O)N(c3ccc(F)cc3)C2=O)CC1 (stereo not given) |  | inactive: 3.69%
COCCCNC(=S)NNC(=O)c1ccccc1Br |  | inactive: 1.38%
CC(=O)Nc1cccc(OCC(O)Cn2cnc3ccccc32)c1 (stereo not given) | inconclusive [activator, full curve, poor fit] | 
CCSc1nn(CC(=O)Nc2cccc(Cl)c2)c(N)c1S(=O)(=O)c1ccc(OC)cc1 | inconclusive [inhibitor, partial curve] | 
CC(=O)c1ccc(NC(=O)Cn2nc(C(F)(F)F)c3c2CCCC3)cc1 | inconclusive [inhibitor, partial curve, poor fit] | 
O=C(CN(Cc1ccccc1)C1=NCCS1)c1ccc(Cl)cc1 | inconclusive [inhibitor, single point] | 
O=C(/C=C/c1ccco1)Nc1cccnc1Cl | inconclusive [inhibitor, partial curve] | 
O=C(COC(=O)C1Cc2ccccc2CN1C(=O)c1ccccc1)Nc1ccc(SC(F)F)cc1 (stereo not given) | inconclusive [inhibitor, single point] | 
COc1ccc(-c2nc(SCC(=O)Nc3ccc4c(c3)OCCO4)c(-c3ccccc3)[nH]2)cc1 | inconclusive [activator, single point] | 

Structure (SMILES) | Potency | activity, negative = inhibition
COC(=O)CC1Oc2ccc(C)cc2-n2cc(-c3ccc(C)cc3)nc21 (stereo not given) | inconclusive [inhibitor, partial curve] | 
COC(=O)c1ccccc1NC(=O)C1=C(C)C(=O)OC12CCC(C)CC2 (stereo not given) |  | inactive: -13%
Cc1ccc(C(C[N+](=O)[O-])Sc2ccc(N)cc2)cc1 (stereo not given) | inconclusive [inhibitor, partial curve] | 
CC1CCN(CC(=O)Nc2cccc(C(=O)Nc3cccc(C(F)(F)F)c3)c2)CC1 | inconclusive [inhibitor, single point] | 
Cc1ccc(N2C(S)=C(C#N)C(=O)NC23CCCCC3)cc1 | inconclusive [inhibitor, single point] | 
CC(C)Oc1ccc(C(=O)Nc2nonc2-c2ccc(OC(C)C)cc2)cc1 | inconclusive [inhibitor, single point] | 
CCc1cc(C(=O)OC)c(NC(=O)c2cc(Br)cs2)s1 | inconclusive [inhibitor, full curve, poor fit] | 
COc1ccc(NCc2ccc([N+](=O)[O-])s2)c(OC)c1 | inconclusive [inhibitor, partial curve, poor fit] | 
COc1ccc(NC(=O)c2ccc(NC(=O)CCS(=O)(=O)c3cccs3)cc2)cc1 | inconclusive [inhibitor, single point] | 
COc1ccccc1Nc1nc(-c2ccccc2O)nc2ccccc12 | inconclusive [inhibitor, partial curve] | 
O=C(CN1CCN(C(=O)c2ccco2)CC1)Nc1ccc(Cl)c(S(=O)(=O)N2CCOCC2)c1 | inconclusive [inhibitor, single point] | 
CCOc1ccc2c(c1)c(=O)c(S(=O)(=O)c1ccc(Cl)cc1)cn2Cc1ccccc1C | inconclusive [inhibitor, full curve, poor fit] | 
COc1ccc(/C=C/C(=O)c2ccc(Cl)s2)cc1O | inconclusive [activator, single point] | 
CC(C)c1ccc(NC(=S)NCc2ccc3c(c2)OCO3)cc1 |  | inactive: -11.5%
O=C1/C(=N\S(=O)(=O)c2cccs2)C([n+]2ccccc2)=C([O-])c2ccccc21 | inconclusive [inhibitor, partial curve] | 
CCc1c(C)[nH]n(-c2nc(-c3cccc([N+](=O)[O-])c3)cs2)c1=O |  | inactive: 2.97%
Cc1ccc(C)c(CN2C(=O)c3ccccc3S(=O)c3ccc(C(=O)NCCC4=CCCCC4)cc32)c1 (stereo not given) | inconclusive [inhibitor, partial curve] | 
O=C(Nc1ccc(Cl)c(-c2nc3cc(Cl)ccc3o2)c1)c1cc2ccccc2o1 | inconclusive [inhibitor, partial curve] | 
CC(=O)NCc1ccc(S(=O)(=O)NC(C(=O)O)C(C)C)cc1 (stereo not given) | inconclusive [inhibitor, partial curve] | 
Oc1c(Cl)cc(Cl)cc1CNn1cnnc1 |  | inactive: 0.428%
CCN1CCN(Cc2ccc(NC(=O)c3cc(NC(=O)c4cnn(-c5ccccc5)c4N)cc(OC)c3)cc2C(F)(F)F)CC1 | inconclusive [inhibitor, single point] | 

From PubChem BioAssay AID1468 (National Center for Advancing Translational Sciences (NCATS), 2008)
